PubChem BioAssay AID686978 (National Center for Advancing Translational Sciences (NCATS), 2013)
Values joined by “and” are separate entries in the source; they are usually repeats but may differ in a detail not shown here. Identical values can stand only once. In all, about 420,000 compounds went through this assay and about 64,000 (15%) were called active. Inconclusive results, whose numbers are uncertain, are shown with a selection of clear calls. The call rests on the fitted dose curve; in most records, active means well fitted inhibition curve with a large enough effect; inconclusive means small, poorly fitted or top-dose-only effect; inactive means flat fitted curve, though single readings scatter. Potencies of inconclusive entries are left out as doubtful fits.

Assay: qHTS for Inhibitors of human tyrosyl-DNA phosphodiesterase 1 (TDP1): qHTS in cells in absence of CPT; further: nearly all actives have a fitted effect of over 55% in size
Conditions: DT40 Tdp1-/- hTDP1 cells, no CPT, ATP luminescence, 48 h; activity change, negative = growth inhibition: at 46.2 µM (top of the series)
Text: Human tyrosyl-DNA phosphodiesterase 1 (TDP1) is a novel repair gene, and we propose to use it as a new target for anticancer drug development. TDP1 is not an essential protein, but under treatment with topoisomerase I poison (camptothecin: CPT), TDP1 works as a critical factor for cell survival. To directly identify novel TDP1 inhibitors active in a cellular environment, we have knocked-out the Tdp1 gene in chicken DT40 cells (Tdp1-/-) and generated a complemented counterpart cells that contains a stable transfection of the human TDP1 gene (Tdp1-/-;hTDP1 cells). For the primary screen, Tdp1-/-;hTDP1 cells will be exposed to small molecules in the presence or absence of CPT, and their growth kinetics will be evaluated after 48 hours by measuring ATP activity. […] The hit compounds will then be evaluated in the presence or absence of CPT using Tdp1-/- cells. […] In tertiary assays, biochemical gel-based assays will be used to assess whether the hit compounds specifically target TDP1.
To this end, we have screened this cell line against the MLSMR in two primary screens. In one screen we add CPT and in the other we screen in the absence of CPT; this AID represents the screen where CPT was absent.
NIH Chemical Genomics Center [NCGC]
NIH Molecular Libraries Probe Centers Network [MLPCN]
Assay Submitter (PI): Yves Pommier, NCI
DT40-hTDP1 cells without 20 nM Camptothecin (add 20 microL of DMSO in 1 L of cell culture medium) were dispensed at 400 cells/5microL/well in tissue culture treated 1536-well white wall/solid bottom assay plates (Greiner Bio-One North America, NC, U.S.A.) using a Multidrop Combi 8 channel dispenser (Thermo Fisher, Waltham, MA, USA). 23 nL compounds and controls were transferred using the pin tool (Kalypsys, San Diego, CA, USA) to the assay plates. The assay plates were then incubated at 37 masculineC for a minimum 48 hr. Three microL of Cell Titer Glo solution was added to the plates and incubated at RT in dark for 30 min. Luminescence was read using ViewLux (Perkin Elmer) with 1 sec exposure slow speed, high gain and 2x binning.
On the % scale 0 is the no-effect control and ±100 the full control effect; potency means the concentration at half of the fitted maximal effect; tags describe the fitted curve by direction and shape.

SMILES	Potency	activity change, negative = growth inhibition
Cc1ccc(C2OCC(C)([N+](=O)[O-])CO2)cc1 (stereo not given)	inactive	–
Cc1ccc(C(=O)N/C(=C\c2ccc(F)cc2)C(=O)NCCN2CCOCC2)cc1	inactive	–
CCn1c(C)cc(C(=O)CSc2nnc(C3CC3)n2C2CC2)c1C	inconclusive [inhibitor, single point]	–
O=C(CN1C(=O)/C(=C2/SC(=S)N(CCS(=O)(=O)O)C2=O)c2ccccc21)Nc1cccc(Br)c1	inactive	–
COc1ccc(CCC(=O)N2c3ccccc3N=C(c3ccc(C(F)(F)F)cc3)C2C(=O)NC(C)(C)C)cc1 (stereo not given)	inconclusive [inhibitor, single point]	–
CCOc1ccccc1NC(=O)C1CCCN(S(=O)(=O)c2c(C)[nH]c(=O)[nH]c2=O)C1 (stereo not given)	inactive	–
COc1ccc([N+](=O)[O-])cc1NS(=O)(=O)c1ccc(C(=O)N2CCCC2)cc1	inactive	–
COc1ccc(OC)c(N(C)S(=O)(=O)c2cc3c(cc2C)NC(=O)CO3)c1	inconclusive [inhibitor, partial curve, poor fit]	–
CC(C)C(=O)N1CCN(c2ccccc2NC(=S)NC(=O)Cc2ccccc2)CC1	inconclusive [inhibitor, single point]	–
O=C(NCc1ccc(F)cc1)c1cccc2c1C(=O)c1ccc(N3CCOCC3)cc1S2(=O)=O	inconclusive [inhibitor, partial curve]	–
Oc1ccc(/C=N/NC(=S)Nc2cccnc2)c(O)c1	active: 8.2 µM	–
COc1ccc(NC(=O)CSc2nc3ccccc3nc2N2CCCC2)cc1	inconclusive [inhibitor, single point]	–
CC(C)(C)NC(=O)CSc1nnc(-c2ccccc2)c(-c2ccccc2)n1	inconclusive [inhibitor, partial curve, poor fit]	–
CCCCCn1c(SCc2cccc(C)c2)nc2c1c(=O)[nH]c(=O)n2C	inconclusive [inhibitor, single point]	–
Cc1nc(N2C(=O)c3oc4ccccc4c(=O)c3C2c2cccc(OCCC(C)C)c2)sc1C (stereo not given)	inactive	–
CCOCCOC(=O)c1[nH]c2c(c1C)C(=O)CC(c1cc(OC)c(OC)c(OC)c1)C2 (stereo not given)	active: 9.2 µM	–
CCOC(=O)N1CCc2c(sc(NCc3cccc(F)c3)c2C(=O)Nc2ccccc2OCC)C1	inconclusive [inhibitor, single point]	–
Cc1ccc(S(=O)(=O)N(CC(=O)N(C)C)c2cccc([N+](=O)[O-])c2)cc1	inconclusive [inhibitor, single point]	–
c1ccc2c(C(c3c[nH]c4ccccc34)c3c[nH]c4ccccc34)c[nH]c2c1	inconclusive [inhibitor, single point]	–
CCCCCCCCCCCCCCC[C@@H](O)[C@H](CO)NC(C)=O	–	inactive: 6.45% [at 4.12 µM]
C#C[C@]1(O)CCC2C3CCC4=Cc5oncc5C[C@@]4(C)C3CC[C@@]21C (stereo not given in full)	inconclusive [inhibitor, partial curve, poor fit]	–
CCN(CC)c1ccc(/C=N/NC(=S)NCc2ccccc2)cc1	active: 16.4 µM	–
CC(C)c1ccc(/C=C/c2ccc(=O)n(C)n2)cc1	inactive	–

SMILES	Potency	activity change, negative = growth inhibition
CCc1cc(-c2n[nH]c(=S)n2-c2cccc(C)c2)cs1	–	inconclusive: -31.8% [inhibitor]
CCCOc1c(Br)cc(C(=O)OCC(=O)NC(=O)c2cccn2C)cc1OC	inconclusive [inhibitor, single point]	–
O=C(CSc1nnc(-c2ccccc2)c(-c2ccccc2)n1)NC1CCCCC1	inconclusive [inhibitor, single point]	–
COc1ccc(CCNC(=O)Nc2ccc([N+](=O)[O-])cc2)cc1OC	inconclusive [inhibitor, partial curve]	–
CCCCOc1ccccc1C1C(C(=O)OC)=CN(CC)C=C1C(=O)OC	inconclusive [inhibitor, single point]	–
Cn1c(=O)c2[nH]c(N=NN3CCCCC3)nc2n(C)c1=O	inactive	–
Cc1cc(Br)ccc1N=C1C(=O)Nc2ccccc21	inactive	–
O=C(/C=C/c1ccco1)NCC1(c2ccccc2)CCCC1	inconclusive [inhibitor, single point]	–
O=C(O)c1cn(-c2ccc(F)cc2)c2cc(N3CCNCC3)c(F)cc2c1=O	active: 14.6 µM and active: 16.4 µM	–
C=CCn1c(=NC(=O)c2sc3ccccc3c2Cl)sc2cc(S(N)(=O)=O)ccc21	inconclusive [inhibitor, single point]	–
CCOC(=O)c1[nH]c(C)c(C(=O)Nc2ccccc2F)c1C	active: 2.59 µM	–
O=C(NCCCN1CCCC1)c1ccc(CS(=O)(=O)c2c(Cl)cccc2Cl)o1	inactive	–
Cc1ccc(C)c(S(=O)(=O)N2CCCOC2CNC(=O)C(=O)NC2CCCC2)c1 (stereo not given)	inactive	–
CNC(=O)[C@@H]1C[C@@H](NCc2cccc(Oc3ccccc3)c2)CN1C(C)C	inconclusive [inhibitor, single point]	–
COc1ccc(NC(=O)CSc2nc3ccccc3c(=O)n2CCNC(C)=O)c(OC)c1	inconclusive [inhibitor, single point]	–
COc1ccc2c(c1)CCc1c(C(=O)Nc3ccc(F)c(Cl)c3)noc1-2	inactive	–
CCCc1c(C(=O)N/N=C(\C)c2ccccc2O)nnn1-c1nonc1N	active: 8.2 µM	–
CCn1c(SCC(=O)Nc2ccc(Cl)cc2)nc2nc3c(cc2c1=O)CCCC3	inconclusive [inhibitor, single point]	–
Cc1ccc(C)n1Cc1ccc(C(=O)O)cc1	inactive	–
CC(=O)Nc1ccc(S(=O)(=O)NC2(C(F)(F)F)NC(=O)N(CC(C)C)C2=O)cc1 (stereo not given)	inactive	–
Cc1cc(F)cc(-c2cc(C(=O)NCc3ccc(C(F)(F)F)cc3)[nH]n2)c1	inactive	–
COc1ccc(NC(=O)c2cc(-c3cc(C)ccc3O)n[nH]2)cc1Cl	inconclusive [inhibitor, partial curve, poor fit]	–
